Laboratory results published in PubChem BioAssay AID686979 (National Center for Advancing Translational Sciences (NCATS), 2013).
About 50,000 (12%) of roughly 420,000 compounds were called active. Inconclusive results, whose numbers are uncertain, are shown with a selection of clear calls. Calls come from the whole dose curve; as a rule, active = well fitted inhibition curve with a large enough effect; inconclusive = small, poorly fitted or top-dose-only effect; inactive = flat fitted curve, though single readings scatter. Potencies of inconclusive entries are left out as doubtful fits.

Assay: qHTS for Inhibitors of human tyrosyl-DNA phosphodiesterase 1 (TDP1): qHTS in cells in presence of CPT; note: nearly all actives have a fitted effect of over 55% in size
Settings: chicken DT40 Tdp1-/-;hTDP1 cells + 20 nM CPT, ATP luminescence, 48 h; activity change, negative = growth inhibition: at 46.2 µM (top of the series)
Summary of the method: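 Chicken DT40 Tdp1-/- cells stably complemented with human TDP1 were seeded at 400 cells/well in medium containing 20 nM camptothecin, exposed to pin-transferred compounds, and grown at 37 °C for at least 48 hr. Viability was read as ATP luminescence.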
% is set by controls: 0 for no effect and ±100 for the full control effect; potency is the fitted concentration of half-maximal effect; tags give direction and shape of the fitted curve.

| SMILES | Potency | activity change, negative = growth inhibition |
| --- | --- | --- |
| O=S(=O)(c1cnccc1N1CCN(/N=C/c2ccc(Cl)cc2)CC1)N1CCCCC1 | inconclusive [inhibitor, single point] |  |
| COc1cc(C(C)=O)ccc1OCC(O)CNCC(O)c1ccccc1 (configuration not stated) | inconclusive [inhibitor, partial curve] |  |
| CCn1nnc(NC(=O)c2ccc([N+](=O)[O-])o2)n1 | inconclusive [inhibitor, single point] |  |
| O=S(=O)(c1ccc(Br)c2ccccc12)N1CCOCC1 |  | inactive: 5.94% |
| Oc1ccc(Br)cc1CNc1nccs1 |  | inactive: -15.4% |
| Cc1cccc(OC(C)C(=O)N(Cc2cccs2)C2CCS(=O)(=O)C2)c1C (configuration not stated) | inconclusive [inhibitor, single point] |  |
| O=S(=O)(NCc1ccccc1)c1ccccc1NCc1ccc(Cl)cc1 | inconclusive [inhibitor, single point] |  |
| COc1cccc(-c2nc(SCC(=O)N3CCc4ccccc43)c3c(=O)n(C)c(=O)n(C)c3n2)c1 |  | inactive: -7.99% |
| Cc1c(C(=O)Nc2ccc(-n3cnnn3)cc2)oc2ccccc12 |  | inactive: -23.6% |
| c1ccc2sc(-n3cc(C4CCCCC4)nn3)nc2c1 | inconclusive [inhibitor, partial curve] |  |
| COc1ccc(CCC(=O)NCc2ccc3c(c2)CCN3C(=O)c2ccc(C)cc2)cc1 | inconclusive [inhibitor, single point] |  |
| O=C(CNC(=O)C1COc2ccccc2O1)N/N=C\c1cccc(O)c1 (configuration not stated) |  | inactive: 7.74% |
| COc1ccc(CC2(CO)CCN(Cc3cc4ccccc4o3)CC2)cc1 | active: 16.4 µM |  |
| c1ccc2c(c1)ncn2Cc1nnc2sc(-c3ccncc3)nn12 | inconclusive [inhibitor, single point] |  |
| CCCCCn1c(=N)n(CC(O)COc2ccccc2OC)c2ccccc21 (configuration not stated) | active: 3.66 µM |  |
| Cc1cccc(OCC(=O)Nc2ccc3nc(Nc4cccc(Cl)c4)cc(C)c3c2)c1 | inconclusive [inhibitor, partial curve] |  |
| CCN(CC)S(=O)(=O)c1ccc(NCCc2ccccn2)nc1 |  | inactive: 0.73% |
| CCOc1ccccc1CNC(=O)CN1C(=O)CCc2cc(S(=O)(=O)N3CCCCC3)ccc21 | inconclusive [inhibitor, single point] |  |
| Cc1ccc2[nH]c(=O)c(-c3noc(CC(C)C)n3)cc2c1 | inconclusive [inhibitor, single point] |  |
| CCCc1ccc(-c2cc(C(=O)N3CCN(c4ccccn4)CC3)c3ccccc3n2)cc1 | inconclusive [inhibitor, single point] |  |
| COc1ccc(OC)c(NC(=S)N2CCN(C/C=C/c3ccccc3)CC2)c1 | inconclusive [inhibitor, single point] |  |
| OCCN1CCN(c2ncnc3c2ncn3[C@H]2CN(Cc3cccs3)C[C@@H](CO)O2)CC1 | inconclusive [inhibitor, partial curve] |  |
| COc1ccc(CCNC(=O)Nc2cccc([N+](=O)[O-])c2)cc1OC | inconclusive [inhibitor, single point] |  |
| O=C(O)Cc1cc2ccccc2nc1C(=O)O |  | inactive: -9.96% |

| SMILES | Potency | activity change, negative = growth inhibition |
| --- | --- | --- |
| CCCCN(C(=O)C1COc2ccccc2O1)c1c(N)n(CCC)c(=O)[nH]c1=O (configuration not stated) |  | inactive: 3.36% |
| CCOC(=O)c1c(-c2ccccc2)oc2ccc(NS(=O)(=O)c3ccc(C(C)C)cc3)cc12 | inconclusive [inhibitor, single point] |  |
| CCc1nnc(NC(=O)CSc2nnc(C3CCCCC3)n2-c2cccc(Cl)c2)s1 |  | inactive: -29% |
| CCCCC/C=C\C/C=C\C/C=C\CCCCC(=O)O | inactive |  |
| O=C(CSc1ccc(-c2cccnc2)nn1)Nc1ccc(Br)cc1 | inconclusive [inhibitor, single point] |  |
| Cc1ccc(Cn2nc(C)c(NC(=O)c3cc(-c4ccco4)on3)c2C)cc1 | inconclusive [inhibitor, single point] |  |
| O=C(c1ccc(Cl)c(S(=O)(=O)NCc2cccnc2)c1)N1CCCC1 | inconclusive [inhibitor, full curve] |  |
| CCOC(=O)c1oc2ccccc2c1NC(=O)c1ccc(Cl)s1 | inconclusive [inhibitor, partial curve, poor fit] |  |
| CC(C)c1ccc2oc(=O)cc(CN3CCN(c4ccccc4)CC3)c2c1 | inconclusive [inhibitor, single point] |  |
| CCCCNC(=O)c1nc(C2CCN(S(=O)(=O)c3ccccc3C(F)(F)F)CC2)oc1-c1ccccc1 | active: 23.1 µM |  |
| CC1CCN(C(=O)Cn2c3ccc(F)cc3c3nc4n(c(=O)c32)CCCS4)CC1 | inconclusive [inhibitor, partial curve] |  |
| COC(=O)C1=C(N)Oc2cc(C)n(CCCn3ccnc3)c(=O)c2C1c1ccc(Cl)cc1 (configuration not stated) | inconclusive [inhibitor, single point] |  |
| CC(=O)N1CCc2c(sc3c2c(=O)n(Cc2ccccc2)c(=O)n3CC(=O)Nc2ccc(C)c(F)c2)C1 | inconclusive [inhibitor, single point] |  |
| O=C(CSc1ccc(Cl)cc1)Nc1cccc(NC(=O)c2ccco2)c1 | inconclusive [inhibitor, partial curve, poor fit] |  |
| COc1ccc(OCC(O)Cn2c(Nc3cccc(C)c3)nc3c2c(=O)n(C)c(=O)n3C)cc1 (configuration not stated) | inconclusive [inhibitor, single point] |  |
| CCOc1ccc(CNC(=O)CCCn2c(=O)c3cccn3c3ccc(F)cc32)cc1 | inconclusive [inhibitor, single point] |  |
| CCc1ccc(S(=O)(=O)c2nnn(-c3cccc(C)c3)c2N)cc1 | active: 20.6 µM |  |
| N#Cc1nc(COc2ccc(Br)cc2)oc1NCCCn1ccnc1 |  | inconclusive: -33.8% [inhibitor] |
| O=C(CNC(=O)c1ccco1)OCc1ccccc1F |  | inactive: 12.9% |
| CC#CCN1C=C(C(=O)OCC)C(C)N(Cc2ccc(Br)cc2)S1(=O)=O (configuration not stated) | active: 18.4 µM |  |
| Cn1c(Oc2ccc(F)cc2)c(C=O)c2ccccc21 | inconclusive [inhibitor, partial curve] |  |
| CCOc1ccc(S(=O)(=O)N2CCCCC2)cc1NC(=O)Cc1cccs1 | inconclusive [inhibitor, single point] |  |
| CC1(C(=O)NC2CCc3ccccc32)CCN1CCc1ccccc1 (configuration not stated) | active: 16.4 µM |  |
| COc1ccc(CN2C(=O)C(NC(=O)c3ccccc3OC)(C(F)(F)F)N=C2c2ccccc2)cc1 (configuration not stated) | active: 18.4 µM |  |

| SMILES | Potency | activity change, negative = growth inhibition |
| --- | --- | --- |
| CCc1nc(Nc2ccc3c(c2)OCO3)c2oc3ccccc3c2n1 | active: 20.6 µM |  |
| CCN(CC(=O)Nc1ccccc1C(F)(F)F)C(=O)c1ccc(=O)n(Cc2ccccc2)n1 |  | inactive: -25% |
| CCOC(=O)C1=C(C)N(C)C(=S)NC1c1ccc(Cl)cc1 (configuration not stated) |  | inconclusive: -30.1% [inhibitor] |
| COc1cc(F)c(C2=CC(=O)C[C@H](c3ccc(F)cc3)C2)cc1F | inconclusive [inhibitor, single point] |  |
| COc1cc(NS(=O)(=O)c2ccc3ccccc3c2)c2ncccc2c1 | active: 8.2 µM |  |
| CC(C)c1ccc(OCc2cc(=O)n3c(-c4ccccc4)csc3n2)cc1 | inconclusive [inhibitor, single point] |  |
| CCOC(=O)c1ccc(NC(=O)c2nn(C)c3c2COc2ccccc2-3)cc1 | inconclusive [inhibitor, single point] |  |
| O=C1c2ccccc2CCC12OC2c1ccncc1 (configuration not stated) |  | inactive: -16.3% |
| CCCOC(=S)Nc1ccccc1 |  | inactive: -5.37% |
| Cc1ccc(S(=O)(=O)c2nnn3c2nc(NCc2ccccc2Cl)c2sccc23)cc1 | inconclusive [inhibitor, partial curve] |  |
| Clc1ccccc1-c1nc(NCc2cccs2)c2ccccc2n1 | inconclusive [inhibitor, single point] |  |
| Cc1ccc(-n2c(C)cc(/C=C3\NC(=O)NC3=O)c2C)c(C)c1 | inconclusive [inhibitor, single point] |  |
| CCS(=O)(=O)c1ccc2oc(SCC(=O)NC(C)C3CC4CCC3C4)nc2c1 (configuration not stated) | inconclusive [inhibitor, single point] |  |
| CCOC(=O)Oc1ccc2oc(C)c(C(=O)OCCOC)c2c1 |  | inactive: -8.99% |
| COc1ccc(C(=O)NNC(=S)NC(=O)c2cccs2)cc1 | active: 14.6 µM |  |
| Cc1ccsc1/C=C1\SC(N)=NC1=O |  | inactive: -18.6% |
| COC(=O)C1(C)CCCC2(C)c3cc(OC)ccc3C(=O)C(Br)C12 (configuration not stated) | active: 11.6 µM |  |
| COc1ccc(NC(=O)CCCN2C(=O)COc3ccc(C)cc32)cc1OC | inconclusive [inhibitor, single point] |  |
| c1cnc2ccc(C(c3nnnn3C3CCCC3)N3CCN(c4nc5ccccc5s4)CC3)cc2c1 (configuration not stated) | inconclusive [inhibitor, single point] |  |
| O=C(COC(=O)CCNS(=O)(=O)c1cccs1)Nc1ccccc1 |  | inactive: -19.7% |
| Cc1cc2oc(C(=O)Nc3ccc(S(=O)(=O)N4CCCC(C)C4)cc3)cc(=O)c2cc1Cl (configuration not stated) | inconclusive [inhibitor, single point] |  |
| COc1ccc(Cl)cc1C(=O)Nc1ccc2c(c1)OCO2 |  | inactive: -9.9% |
| C[C@@H]1CN(Cc2nc(Cc3ccccc3F)no2)C[C@H](C)O1 |  | inactive: 12.9% |
| COc1ccc(CN(C)C(=O)c2ccc(NS(=O)(=O)c3ccccc3)cc2)c(OC)c1 | inconclusive [inhibitor, partial curve] |  |
